# The inconclusive results got no clear call from the source; some entries with a clear call stand among them for comparison. For part of these data: Potencies of inconclusive entries are left out as doubtful fits. Calls of active or inactive are those of the source. Unless noted, calls follow the shape of the dose curve; as a rule, active = well fitted curve in the direction sought with a large enough effect; inconclusive = small, poorly fitted or top-dose-only effect, or another doubt; inactive = no such curve, though single readings can be large; an effect the other way counts as inactive or inconclusive.
# Experiments:
# [1] = target: Phospholipid hydroperoxide glutathione peroxidase GPX4 (Homo sapiens) (UniProt P36969); test: Primary qHTS Assay for Inhibitors of Recombinant Selenoprotein Glutathione Peroxidase 4 (GPX4) (AID 1845192); also: nearly all actives have a fitted effect of over 65% in size; also: potency is read from the fitted curve at half-maximal effect
# Sequence of UniProt P36969 (P36969 whole entry, looked up): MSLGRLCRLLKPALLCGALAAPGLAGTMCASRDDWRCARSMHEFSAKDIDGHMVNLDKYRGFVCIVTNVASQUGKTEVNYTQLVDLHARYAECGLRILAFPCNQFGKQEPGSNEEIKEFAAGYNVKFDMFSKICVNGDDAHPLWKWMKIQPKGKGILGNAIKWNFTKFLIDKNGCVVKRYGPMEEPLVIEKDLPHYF
# Summary of the method: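 qHTS, GR-coupled: GPX4 200 nM + cpd 30 min RT → GSH 1 mM, NADPH 0.5 mM, GR 100 nM → CHP 0.5 mM start; fluor 340/450 at t0 and t15 min; no-enzyme wells as control.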
# [2] = Primary redox qHTS assay for identification of artifact compounds. (AID 1845223); also: potency is read from the fitted curve at half-maximal effect
# Summary of the method: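 Redox-cycling detection via DTT (250 uM final) oxidation coupled to Amplex Red (25 uM)/HRP (250 mU/mL) in HBSS. 15 min preincubation plus 30 min after DTT, room temperature. Ex/Em 525/598 nm; 4-parameter Hill fit against DMSO and 10 uM DA3003.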
# [3] = system: HeLa; test: Primary qHTS to identify gynecologic anti-cancer compounds using libraries of approved drugs and bioactive compounds (AID 1345084); conditions: Gynecologic cancer cell panel viability, ATPlite luminescence, 48 h; series mostly up to 57.5 µM; also: nearly all actives have a fitted effect of over 55% in size; also: potency is read from the fitted curve at half-maximal effect
# Summary of the method: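 In this quantitative HTS, cell killing is estimated from loss of ATP-dependent luciferase light. Cells see five compound concentrations over a 48 h exposure.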
# [4] = system: Zika virus NS2B-NS3 protease (unlinked complex); test: Primary screen GU Rhodamine qHTS for Zika virus inhibitors: Unlinked NS2B-NS3 protease assay (AID 1347159); also: potency is read from the fitted curve at half-maximal effect; nearly all actives have a fitted effect of over 60% in size
# Summary of the method: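 Buffer 10 mM Tris-HCl pH 8.0, 0.01% Tween 20. Unlinked protease 25 nM; compound preincubation 15 min, RT, protected from light. Substrate Rhod110, 1.5 microM; ~15% conversion in 15 min.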
# [5] = system: Zika virus NS2B-NS3 protease (linked construct); test: Primary screen NINDS Rhodamine qHTS for Zika virus inhibitors (AID 1347160); also: nearly all actives have a fitted effect of over 55% in size
# Summary of the method: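 Aprotinin served as in-plate control. Conditions: 25 nM linked NS2B-NS3, pH 8.0 Tris buffer, titrated compounds, 15 min preincubation and 15 min reaction with 1.5 microM Rhod110 substrate at room temperature.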
# [6] = target: Cytochrome P450 3A4 (Homo sapiens) (UniProt P08684); test: Cytochrome P450 family 3 subfamily A member 4 (CYP3A4) small molecule antagonists: luciferase qHTS assay (AID 1645841; active = well fitted curve in the direction sought with a large enough effect in the repeat runs; inconclusive = weak or mixed curves; inactive = no such curve, though single readings can be large; an effect the other way counts as inactive or inconclusive; also: nearly all actives have a fitted effect of over 45% in size; also: potency is read from the fitted curve at half-maximal effect)
# Sequence of UniProt P08684 (P08684 whole entry, looked up): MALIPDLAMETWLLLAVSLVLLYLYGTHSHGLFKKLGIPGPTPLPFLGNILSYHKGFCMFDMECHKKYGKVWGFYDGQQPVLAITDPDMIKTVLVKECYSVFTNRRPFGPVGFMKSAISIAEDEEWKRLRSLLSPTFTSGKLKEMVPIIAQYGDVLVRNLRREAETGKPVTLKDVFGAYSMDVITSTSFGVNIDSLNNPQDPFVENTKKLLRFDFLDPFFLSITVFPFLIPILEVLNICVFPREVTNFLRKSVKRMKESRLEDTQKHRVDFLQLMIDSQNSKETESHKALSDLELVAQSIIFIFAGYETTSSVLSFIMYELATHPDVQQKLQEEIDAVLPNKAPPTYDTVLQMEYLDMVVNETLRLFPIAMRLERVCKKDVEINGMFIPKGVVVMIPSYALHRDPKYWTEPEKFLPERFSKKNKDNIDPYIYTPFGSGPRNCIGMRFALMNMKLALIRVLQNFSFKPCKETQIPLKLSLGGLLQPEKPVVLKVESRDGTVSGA
# Summary of the method: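 P450-Glo CYP3A4 enzyme with proluciferin substrate was preincubated with DMSO-dissolved compounds for 10 min at room temperature. NADPH regeneration solution started a 1 h reaction. Detection reagent stopped it, and luminescence was read after 20 min.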
# [7] = target: Cytochrome P450 2D6 (Homo sapiens) (UniProt P10635); test: Cytochrome P450 family 2 subfamily D member 6 (CYP2D6) small molecule antagonists: luciferase biochemical (cell-free) qHTS assay (AID 1645840; active = well fitted curve in the direction sought with a large enough effect in the repeat runs; inconclusive = weak or mixed curves; inactive = no such curve, though single readings can be large; an effect the other way counts as inactive or inconclusive; also: potency is read from the fitted curve at half-maximal effect; nearly all actives have a fitted effect of over 55% in size)
# Sequence of UniProt P10635 (P10635 whole entry, looked up): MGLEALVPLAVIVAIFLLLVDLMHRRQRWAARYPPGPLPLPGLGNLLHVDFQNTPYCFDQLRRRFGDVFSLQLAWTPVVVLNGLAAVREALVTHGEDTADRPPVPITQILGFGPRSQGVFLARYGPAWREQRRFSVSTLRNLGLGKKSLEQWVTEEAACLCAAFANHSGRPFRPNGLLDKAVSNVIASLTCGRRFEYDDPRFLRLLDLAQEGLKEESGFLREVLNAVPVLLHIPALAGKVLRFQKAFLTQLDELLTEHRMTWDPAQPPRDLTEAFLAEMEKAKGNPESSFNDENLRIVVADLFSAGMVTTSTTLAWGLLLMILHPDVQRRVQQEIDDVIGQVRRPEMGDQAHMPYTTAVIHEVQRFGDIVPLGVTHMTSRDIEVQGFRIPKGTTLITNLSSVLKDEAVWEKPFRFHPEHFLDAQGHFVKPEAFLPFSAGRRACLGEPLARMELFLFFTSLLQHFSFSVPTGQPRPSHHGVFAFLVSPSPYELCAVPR
# Summary of the method: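 P450-Glo CYP2D6 system: proluciferin substrate converted by enzyme to luciferin, read by luminescence proportional to activity. Enzyme-substrate mix with compound 10 min at room temperature, then NADPH regeneration 1 h before detection reagent.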
# [8] = target: Cytochrome P450 2C9 (Homo sapiens) (UniProt P11712); test: Cytochrome P450 family 2 subfamily C member 9 (CYP2C9) small molecule antagonists: luciferase biochemical (cell-free) qHTS assay (AID 1645842; active = well fitted curve in the direction sought with a large enough effect in the repeat runs; inconclusive = weak or mixed curves; inactive = no such curve, though single readings can be large; an effect the other way counts as inactive or inconclusive; also: potency is read from the fitted curve at half-maximal effect; nearly all actives have a fitted effect of over 55% in size)
# Sequence of UniProt P11712 (P11712 whole entry, looked up): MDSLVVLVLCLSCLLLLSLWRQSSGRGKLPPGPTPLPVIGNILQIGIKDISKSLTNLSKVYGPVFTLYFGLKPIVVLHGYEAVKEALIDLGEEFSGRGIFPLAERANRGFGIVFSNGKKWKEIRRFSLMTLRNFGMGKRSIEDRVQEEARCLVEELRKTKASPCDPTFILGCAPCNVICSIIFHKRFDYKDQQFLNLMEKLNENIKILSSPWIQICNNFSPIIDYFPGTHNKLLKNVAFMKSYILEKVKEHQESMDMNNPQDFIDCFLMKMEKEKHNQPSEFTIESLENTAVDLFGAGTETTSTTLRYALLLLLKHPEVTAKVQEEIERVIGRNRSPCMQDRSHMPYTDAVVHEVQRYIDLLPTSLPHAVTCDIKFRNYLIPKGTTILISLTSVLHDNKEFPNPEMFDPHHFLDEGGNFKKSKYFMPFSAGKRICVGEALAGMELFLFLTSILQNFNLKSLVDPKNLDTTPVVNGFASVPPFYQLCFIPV
# Summary of the method: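 P450-Glo CYP2C9 system: proluciferin substrate with enzyme in mix containing 0.4% BSA, 10 min at room temperature, then NADPH regeneration solution added and incubated 1 h at 37C. Detection reagent stopped reaction; luminescence read after 20 min as RLU.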
# [9] = qHTS of pediatric cancer cell lines to identify multiple opportunities for drug repurposing: Primary screen for SK-N-MC cells (AID 1347093); conditions: SK-N-MC viability, CellTiter-Glo luminescence, 48 h; activity change, negative = cytotoxic: at 46 µM (top of the series); also: potency is read from the fitted curve at half-maximal effect
# Summary of the method: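 Metabolically active cells were quantified by ATP-dependent luminescence (CellTiter-Glo, 15 min at room temperature) following 48 h treatment. Cells had been plated at 500-1,000 per well and settled for 5 h beforehand.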
# [10] = qHTS of pediatric cancer cell lines to identify multiple opportunities for drug repurposing: Primary screen for Saos-2 cells (AID 1347097); conditions: Saos-2 viability, CellTiter-Glo ATP luminescence, 48 h; activity change, negative = cytotoxic: at 46 µM (top of the series); also: potency is read from the fitted curve at half-maximal effect; nearly all actives have a fitted effect of over 40% in size
# Summary of the method: (§1)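 CRCs from 8- or 11-point titrations (lowest final 0.59 nM NPC, 0.78 nM MIPE). Cell viability: CellTiter-Glo after 48 h incubation, 15 min room-temperature development, luminescence imaging.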
# [11] = qHTS of pediatric cancer cell lines to identify multiple opportunities for drug repurposing: Primary screen for BT-12 cells (AID 1347101); also: nearly all actives have a fitted effect of over 25% in size; also: potency is read from the fitted curve at half-maximal effect
# Summary of the method: (§2)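 Cells (500-1,000/well) rested 5 h, then received compounds for 48 h; metabolically active cells were measured by CellTiter-Glo luminescence. Final concentrations spanned up to 46 µM (MIPE, 11-point) or 0.59 nM-46 µM (NPC, 8-point) in primary screens, 11-point in follow-ups.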
# [12] = qHTS of pediatric cancer cell lines to identify multiple opportunities for drug repurposing: Primary screen for OHS-50 cells (AID 1347103); also: potency is read from the fitted curve at half-maximal effect; nearly all actives have a fitted effect of over 40% in size
# Summary of the method: as §2
# [13] = Primary qHTS for small molecule stabilizers of the endoplasmic reticulum resident proteome: Secreted ER Calcium Modulated Protein (SERCaMP) assay (AID 1508630); conditions: SH-SY5Y GLuc-SERCaMP (Gaussia luciferase released on ER calcium loss) secretion, thapsigargin, luminescence; series mostly up to 38.4 µM; also: potency is read from the fitted curve at half-maximal effect
# Summary of the method: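 The SH-SY5Y reporter protocol was run at 3 concentrations up to 38.3 uM (primary) or 11 concentrations (follow-up): 16 h compound, 100 nM thapsigargin for 4 h, then extracellular luciferase luminescence.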
# [14] = A High-Content qHTS Against Drug Library for the Identification of Small Molecules that Inhibit DYT1 Early Onset Primary Dystonia-Associated Cell Pathology (AID 1645839; calls by dose curve; also: potency is read from the fitted curve at half-maximal effect)
# Summary of the method: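 Induced EGFP-delE TorsinA cells are imaged after 48 h of compound treatment. Punctate fusion-protein distribution gives the %pathology value, while nuclei counts flag toxicity. Wild-type EGFP-hTOR1A cells define the normal pattern.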
# [15] = qHTS of pediatric cancer cell lines to identify multiple opportunities for drug repurposing: Primary screen for SJ-GBM2 cells (AID 1347091); also: potency is read from the fitted curve at half-maximal effect
# Summary of the method: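 Eight- or eleven-point concentration series, 48 h treatment at 37 degrees C in growth media; readout CellTiter-Glo luminescence. Potency and efficacy were taken from the concentration-response curves.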
# [16] = qHTS of pediatric cancer cell lines to identify multiple opportunities for drug repurposing: Primary screen for NB1643 cells (AID 1347099); also: nearly all actives have a fitted effect of over 50% in size; also: potency is read from the fitted curve at half-maximal effect
# Summary of the method: as §1
# [17] = system: MKL-2; test: qHTS assay to identify novel small-molecules to repurpose for Merkel cell carcinoma treatment (AID 1296009); conditions: MCC and control cell lines, CellTiter-Glo viability, 72 h; activity change, negative = cytotoxicity: at 46 µM (top of the series); also: nearly all actives have a fitted effect of over 60% in size; also: potency is read from the fitted curve at half-maximal effect
# Summary of the method: (§3)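 Viability readout: ATP luminescence (CellTiter-Glo) after 72 hr drug exposure at 37 degree celsius. Dose-response format was 8 points for NPC and 11 points for MIPE; data normalized to in-plate controls.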
# [18] = qHTS of pediatric cancer cell lines to identify multiple opportunities for drug repurposing: Primary screen for SK-N-SH cells (AID 1347098); conditions: SK-N-SH viability, CellTiter-Glo luminescence, 48 h; activity change, negative = cytotoxic: at 57 µM (top of the series); also: nearly all actives have a fitted effect of over 65% in size; also: potency is read from the fitted curve at half-maximal effect;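 as to activity change, negative = cytotoxic: DMSO served as neutral control and bortezomib at 2.3 µM as positive control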
# Summary of the method: as §2
# [19] = system: UISO; test: qHTS assay to identify novel small-molecules to repurpose for Merkel cell carcinoma treatment (AID 1296009); conditions: MCC and control cell lines, CellTiter-Glo viability, 72 h; activity change, negative = cytotoxicity: at 46 µM (top of the series); also: nearly all actives have a fitted effect of over 60% in size; also: potency is read from the fitted curve at half-maximal effect
# Summary of the method: as §3
# [20] = system: WaGa; test: as above; conditions: MCC and control cell lines, CellTiter-Glo viability, 72 h; series mostly up to 46 µM
# Summary of the method: as §3
# Tags tell the direction and shape of the fitted curve.
structure (smiles),measurement,setting,value
C#CC(=O)N(c1ccc(OC)cc1OC)C(C(=O)NCC(=O)OCC)c1cccs1 (centres undefined),Potency,[1],"inconclusive [inhibitor, partial curve, poor fit]"
same,Potency,[2],inactive
same,Potency,[3],"inconclusive [cytotoxic, single point]"
COCc1c(Cl)ccc2c1CC[C@H]2c1ncc[nH]1,Potency,[3],"inconclusive [cytotoxic, single point]"
Cc1nnc(C[C@@H]2C=C(c3ccc(Cl)cc3)c3ccccc3-n3c(C)nnc32)o1,Potency,[4],"inconclusive [inhibitor, single point]"
same,Potency,[5],inactive
same,Potency,[2],"inconclusive [activator, full curve, poor fit]"
same,Potency,[3],"inconclusive [cytotoxic, partial curve, poor fit]"
COC(=O)c1ccc2c(c1)nc(NC(=O)c1ccccc1)n2CCCc1ccccc1,Potency,[6],inactive
same,Potency,[2],inactive
same,Potency,[3],inactive
NCC1CCN(c2nccc(-c3ccc4ccccc4c3)n2)CC1,Potency,[7],active: 9.52 µM
same,Potency,[3],active: 14.1 µM
C=C(C)C(=O)OC1CC(CO)CCC/C(CO)=C/C2OC(=O)C(=C)C21 (centres undefined),Potency,[3],inactive
C=CS(=O)(=O)NC1CCN(C(=O)CNc2cc(I)c(Cl)cc2OC)CC1,Potency,[3],"inconclusive [cytotoxic, single point]"
CCC(C)n1cc(C)c2c(C(=O)NCc3c(C)cc(C)[nH]c3=O)cc(-c3ccc(N4CCNCC4)nc3)cc21 (centres undefined),Potency,[7],"inconclusive [inhibitor, single point]"
same,Potency,[1],"inconclusive [inhibitor, partial curve]"
O=C1C(Cc2ccc(O)cc2)N2C(=O)CCN(C(=O)NCc3ccccc3)C2CN1Cc1cccc2ccccc12 (centres undefined),Potency,[4],"inconclusive [inhibitor, single point]"
same,Potency,[7],active: 1.07 µM
same,Potency,[8],active: 10.7 µM
same,Potency,[3],"inconclusive [cytotoxic, full curve]"
CC(=O)N[C@@H](CC(=O)O)C(=O)N[C@@H](CCC(=O)O)C(=O)N[C@H](C(=O)N[C@@H](CC(=O)O)C(=O)Nc1ccc2c(C)cc(=O)oc2c1)C(C)C,Potency,[2],"inconclusive [activator, full curve]"
COc1cc(O)c2c(c1)C1OC1C[C@H](O)[C@H](O)C(=O)/C=C\C[C@H](C)OC2=O (some centres undefined),Potency,[5],inactive
CNCC[C@@H](Oc1ccccc1C)c1ccccc1,Potency,[9],inactive
same,Potency,[10],"inconclusive [cytotoxic, single point]"
same,Potency,[11],inactive
same,Potency,[12],"inconclusive [cytotoxic, single point]"
same,Potency,[13],"inconclusive [inhibitor, single point]"
same,Potency,[14],"inconclusive [inhibitor, partial curve, poor fit]"
same,Potency,[6],"inconclusive [falling, single point]"
COc1cc2nc(C3CC3)nc(N3CCN(c4ccccc4OC)CC3)c2cc1OC,Potency,[8],active: 13.5 µM
Cc1ccc(CCCO)c(NCc2ccc3nc(NCCCN4CCOCC4)n(Cc4nc(C)ccc4O)c3c2)c1,Potency,[1],inactive
same,Potency,[2],"inconclusive [activator, full curve, poor fit]"
C/C=C\NC(=O)C1NC(=O)C(CC(N)=O)NC(=O)C(NC(=O)C(=O)C(C)CC)Cc2ccc(O)c(c2)-c2cccc3c2NC(=O)C3(O)C1O (centres undefined),Potency,[2],inactive
CCNC(=O)Nc1ccc(-c2nc3c(c(N4CCOCC4C)n2)CCN(C2COC2)C3)cc1 (centres undefined),Potency,[7],"inconclusive [inhibitor, single point]"
O=C(N[C@@H]1CCCc2c1cnn2-c1ccc(F)cc1F)c1ccccn1,Potency,[5],inactive
OC(c1ccc(-c2ccc(CN3CCN(Cc4ccncc4)CC3)cc2)c(F)c1)(C(F)(F)F)C(F)(F)F,Potency,[7],active: 3.38 µM
same,Potency,[3],inactive
O=C1OC2(c3ccccc31)c1cc(I)c(O)c(I)c1Oc1c2cc(I)c(O)c1I,Potency,[15],"inconclusive [cytotoxic, partial curve]"
same,Potency,[9],"inconclusive [cytotoxic, partial curve, poor fit]"
same,Potency,[10],"inconclusive [cytotoxic, partial curve]"
same,Potency,[16],"inconclusive [cytotoxic, single point]"
same,Potency,[11],"inconclusive [cytotoxic, partial curve, poor fit]"
same,Potency,[12],"inconclusive [cytotoxic, single point]"
same,Potency,[13],"inconclusive [inhibitor, partial curve, poor fit]"
same,Potency,[14],inactive
same,Potency,[1],"inconclusive [inhibitor, single point]"
same,Potency,[17],"inconclusive [inhibitor, partial curve, poor fit]"
CC(C(O)c1ccccc1)N(C)CCOC(c1ccccc1)c1ccccc1 (centres undefined),Potency,[15],"inconclusive [cytotoxic, single point]"
same,Potency,[9],"inconclusive [cytotoxic, single point]"
same,Potency,[10],"inconclusive [cytotoxic, single point]"
same,Potency,[18],active: 30.7 µM
same,Potency,[16],inactive
same,Potency,[13],"inconclusive [inhibitor, partial curve, poor fit]"
same,Potency,[14],"inconclusive [inhibitor, single point]"
same,Potency,[6],"inconclusive [falling, full curve]"
same,Potency,[8],active: 13.8 µM
same,Potency,[17],"inconclusive [inhibitor, single point]"
same,Potency,[19],"inconclusive [inhibitor, single point]"
same,Potency,[20],"inconclusive [inhibitor, single point]"
CCOP(=O)(Cc1ccc(C(=O)Nc2ccc(Br)cc2C#N)cc1)OCC,Potency,[2],"inconclusive [activator, partial curve, poor fit]"
c1ccc(CN(CC2=NCCN2)c2ccccc2)cc1,Potency,[9],inactive
same,Potency,[18],inactive
same,Potency,[16],inactive
same,Potency,[14],inactive
same,Potency,[8],"inconclusive [inhibitor, single point]"
same,Potency,[19],inactive
same,Potency,[20],inactive
CNc1nc(NCc2ccc(NS(C)(=O)=O)cc2Cl)cc(-c2ccccn2)n1,Potency,[7],"inconclusive [inhibitor, single point]"
